Laboratory results reported in the supplement of paper PMC7335073.
Whole data set: some 4,100 sequences, median “relative CpG methylation activity (normalised to average over all NNNCGNNN flanks)” near 0.87, cut for the highest 2% near 2.4. Some of the results follow.

Biological target: DNMT3A catalytic domain (mouse) (UniProt O88508)
Test: relative CpG methylation activity (normalised to average over all NNNCGNNN flanks) (relative (1 = mean)); higher = more methylation of the central CpG
Conditions: system: in vitro, murine catalytic domain; CpG state: hemimethylated substrate pool; residues: 608-908
Procedure: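 Deep enzymology: a pool of dsDNA substrates with a central CpG flanked by 10 random nucleotides on each side was methylated by the murine DNMT3A or DNMT3B catalytic domain (0.8 mM SAM, 37 °C, 60 min). Methylation was then read out by hairpin ligation, bisulfite conversion and NGS. Values are the average methylation of each NNNCGNNN context (±3 flanks; the outer flanks are random and averaged over), normalised to the overall mean, so 1 = average activity.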

Question: TACCGGCG was tested. Which “relative CpG methylation activity” value did it give?
Answer: 0.675

Question: Which “relative CpG methylation activity” value does the source give for GGCCGGTT here?
Answer: 1.04

Question: For GACCGCAC, which “relative CpG methylation activity” value is on record?
Answer: 0.901

Question: With ATGCGCCA as the sequence, how does the “relative CpG methylation activity” value read?
Answer: 1.91

Question: With AGACGTTC as the sequence, how does the “relative CpG methylation activity” value read?
Answer: 1.16

Question: How did the “relative CpG methylation activity” value turn out when TAACGGGA was run?
Answer: 0.531

Question: How did the “relative CpG methylation activity” value turn out when CGGCGATG was run?
Answer: 0.55

Question: TAGCGCAT was tested. Which “relative CpG methylation activity” value did it give?
Answer: 0.533

Question: For TAACGACC, which “relative CpG methylation activity” value is on record?
Answer: 0.765

Question: Which “relative CpG methylation activity” value does the source give for TGACGGGT here?
Answer: 0.549

Question: How did the “relative CpG methylation activity” value turn out when AAGCGAAA was run?
Answer: 0.627

Question: For GACCGAGG, which “relative CpG methylation activity” value is on record?
Answer: 0.714

Question: With TGTCGACG as the sequence, how does the “relative CpG methylation activity” value read?
Answer: 0.577

Question: With AGCCGCCT as the sequence, how does the “relative CpG methylation activity” value read?
Answer: 1.57

Question: For GGACGGAA, which “relative CpG methylation activity” value is on record?
Answer: 0.815

Question: TGACGCTG was tested. Which “relative CpG methylation activity” value did it give?
Answer: 0.692

Question: Which “relative CpG methylation activity” value does the source give for TAACGTCA here?
Answer: 1.11

Question: Which “relative CpG methylation activity” value does the source give for AACCGGCC here?
Answer: 1.02

Question: Which “relative CpG methylation activity” value does the source give for TGGCGCCG here?
Answer: 0.882

Question: With AATCGCGT as the sequence, how does the “relative CpG methylation activity” value read?
Answer: 0.365

Question: How did the “relative CpG methylation activity” value turn out when AATCGGTA was run?
Answer: 0.267

Question: AGTCGCAA was tested. Which “relative CpG methylation activity” value did it give?
Answer: 0.584

Question: For GAGCGCTT, which “relative CpG methylation activity” value is on record?
Answer: 2.07

Question: For GTTCGTGT, which “relative CpG methylation activity” value is on record?
Answer: 0.329

Question: For ACACGATA, which “relative CpG methylation activity” value is on record?
Answer: 1.52

Question: With CAGCGTAA as the sequence, how does the “relative CpG methylation activity” value read?
Answer: 0.768

Question: How did the “relative CpG methylation activity” value turn out when AAACGTCG was run?
Answer: 1.24

Question: How did the “relative CpG methylation activity” value turn out when GCACGAAT was run?
Answer: 0.975

Question: CGCCGACC was tested. Which “relative CpG methylation activity” value did it give?
Answer: 1.05

Question: Which “relative CpG methylation activity” value does the source give for CCCCGGCT here?
Answer: 1.12

Question: CTACGGCA was tested. Which “relative CpG methylation activity” value did it give?
Answer: 1.99

Question: Which “relative CpG methylation activity” value does the source give for TTTCGTCA here?
Answer: 2.15

Question: ATGCGTAG was tested. Which “relative CpG methylation activity” value did it give?
Answer: 1.23

Question: CGGCGAGA was tested. Which “relative CpG methylation activity” value did it give?
Answer: 0.491

Question: Which “relative CpG methylation activity” value does the source give for TGCCGGGT here?
Answer: 0.724

Question: Which “relative CpG methylation activity” value does the source give for TTCCGCTG here?
Answer: 1.68

Question: Which “relative CpG methylation activity” value does the source give for TTACGGCC here?
Answer: 2.24

Question: ATTCGCTA was tested. Which “relative CpG methylation activity” value did it give?
Answer: 1.12

Question: Which “relative CpG methylation activity” value does the source give for GGACGTTC here?
Answer: 0.957

Question: For TACCGAGA, which “relative CpG methylation activity” value is on record?
Answer: 0.628

Question: Which “relative CpG methylation activity” value does the source give for GCGCGGCG here?
Answer: 1.01

Question: How did the “relative CpG methylation activity” value turn out when ACTCGCGG was run?
Answer: 0.302

Question: TTTCGAAC was tested. Which “relative CpG methylation activity” value did it give?
Answer: 1.14

Question: For AGTCGATG, which “relative CpG methylation activity” value is on record?
Answer: 0.141

Question: For GCACGCCA, which “relative CpG methylation activity” value is on record?
Answer: 1.99

Question: Which “relative CpG methylation activity” value does the source give for GCTCGAAA here?
Answer: 1.03

Question: With CAGCGAAG as the sequence, how does the “relative CpG methylation activity” value read?
Answer: 0.215

Question: Which “relative CpG methylation activity” value does the source give for TCTCGGTC here?
Answer: 1.22

Question: How did the “relative CpG methylation activity” value turn out when GCTCGGGC was run?
Answer: 0.946

Question: How did the “relative CpG methylation activity” value turn out when GGTCGTTG was run?
Answer: 0.154

Question: Which “relative CpG methylation activity” value does the source give for CTCCGCCC here?
Answer: 2.44

Question: For AACCGTAT, which “relative CpG methylation activity” value is on record?
Answer: 0.755

Question: TGCCGCAG was tested. Which “relative CpG methylation activity” value did it give?
Answer: 0.533

Question: AGGCGACT was tested. Which “relative CpG methylation activity” value did it give?
Answer: 0.686

Question: CACCGGGT was tested. Which “relative CpG methylation activity” value did it give?
Answer: 0.714

Question: For AGCCGTTA, which “relative CpG methylation activity” value is on record?
Answer: 0.473

Question: For TTGCGTAT, which “relative CpG methylation activity” value is on record?
Answer: 1.47

Question: How did the “relative CpG methylation activity” value turn out when GGGCGCGC was run?
Answer: 0.507

Question: How did the “relative CpG methylation activity” value turn out when CCCCGTTA was run?
Answer: 1.11

Question: How did the “relative CpG methylation activity” value turn out when TAACGGGT was run?
Answer: 0.62

Question: How did the “relative CpG methylation activity” value turn out when CGGCGCTC was run?
Answer: 1.71

Question: TCGCGTAA was tested. Which “relative CpG methylation activity” value did it give?
Answer: 1.12

Question: GACCGTTC was tested. Which “relative CpG methylation activity” value did it give?
Answer: 0.967

Question: With TTGCGCTG as the sequence, how does the “relative CpG methylation activity” value read?
Answer: 2.05

Question: How did the “relative CpG methylation activity” value turn out when GATCGGAG was run?
Answer: 0.0746

Question: AAGCGGCC was tested. Which “relative CpG methylation activity” value did it give?
Answer: 0.573

Question: CTACGACC was tested. Which “relative CpG methylation activity” value did it give?
Answer: 2.08

Question: How did the “relative CpG methylation activity” value turn out when TCACGCGC was run?
Answer: 1.68

Question: For CGACGTCT, which “relative CpG methylation activity” value is on record?
Answer: 0.915

Question: CGTCGGAC was tested. Which “relative CpG methylation activity” value did it give?
Answer: 0.827

Question: Which “relative CpG methylation activity” value does the source give for AAGCGACC here?
Answer: 0.643

Question: Which “relative CpG methylation activity” value does the source give for CGTCGGGG here?
Answer: 0.351

Question: GCACGGAA was tested. Which “relative CpG methylation activity” value did it give?
Answer: 1.33

Question: For GCTCGTGG, which “relative CpG methylation activity” value is on record?
Answer: 0.0769

Question: TCCCGTAT was tested. Which “relative CpG methylation activity” value did it give?
Answer: 0.643

Question: How did the “relative CpG methylation activity” value turn out when TTACGTGC was run?
Answer: 1.07

Question: Which “relative CpG methylation activity” value does the source give for ATGCGTAA here?
Answer: 1.62

Question: How did the “relative CpG methylation activity” value turn out when ACGCGTAG was run?
Answer: 0.648

Question: Which “relative CpG methylation activity” value does the source give for CTCCGTAG here?
Answer: 0.672

Question: How did the “relative CpG methylation activity” value turn out when TGGCGATG was run?
Answer: 0.361

Question: GGTCGCCA was tested. Which “relative CpG methylation activity” value did it give?
Answer: 0.94

Question: For CGGCGGTC, which “relative CpG methylation activity” value is on record?
Answer: 0.398

Question: Which “relative CpG methylation activity” value does the source give for TTGCGACT here?
Answer: 1.31

Question: TAACGGGG was tested. Which “relative CpG methylation activity” value did it give?
Answer: 0.494

Question: AACCGGCT was tested. Which “relative CpG methylation activity” value did it give?
Answer: 1.31

Question: TAACGCAG was tested. Which “relative CpG methylation activity” value did it give?
Answer: 0.258

Question: Which “relative CpG methylation activity” value does the source give for CAACGGCC here?
Answer: 1.64

Question: For AAACGCGC, which “relative CpG methylation activity” value is on record?
Answer: 0.782

Question: Which “relative CpG methylation activity” value does the source give for GAGCGGAA here?
Answer: 0.6

Question: Which “relative CpG methylation activity” value does the source give for AGTCGTAC here?
Answer: 0.479

Question: Which “relative CpG methylation activity” value does the source give for TGACGATT here?
Answer: 0.68

Question: Which “relative CpG methylation activity” value does the source give for TTGCGTCG here?
Answer: 1.47

Question: Which “relative CpG methylation activity” value does the source give for AAACGCAC here?
Answer: 1.03

Question: CTCCGCGC was tested. Which “relative CpG methylation activity” value did it give?
Answer: 1.79

Question: How did the “relative CpG methylation activity” value turn out when TCTCGTCA was run?
Answer: 1.53

Question: How did the “relative CpG methylation activity” value turn out when GTGCGCCT was run?
Answer: 2.43

Question: Which “relative CpG methylation activity” value does the source give for CTGCGGTA here?
Answer: 0.762

Question: Which “relative CpG methylation activity” value does the source give for GGGCGTAC here?
Answer: 0.5

Question: For GCCCGAAG, which “relative CpG methylation activity” value is on record?
Answer: 0.67

Question: How did the “relative CpG methylation activity” value turn out when TAGCGAAG was run?
Answer: 0.299

Question: How did the “relative CpG methylation activity” value turn out when AGACGACA was run?
Answer: 0.996

Question: Which “relative CpG methylation activity” value does the source give for AGGCGATT here?
Answer: 1.11

Question: With GATCGGAT as the sequence, how does the “relative CpG methylation activity” value read?
Answer: 0.403

Question: Which “relative CpG methylation activity” value does the source give for GCCCGTAA here?
Answer: 1.41

Question: How did the “relative CpG methylation activity” value turn out when CAGCGGTG was run?
Answer: 0.235

Question: TGCCGCGT was tested. Which “relative CpG methylation activity” value did it give?
Answer: 0.517

Question: For CACCGTCT, which “relative CpG methylation activity” value is on record?
Answer: 1.41

Question: With GGGCGAGT as the sequence, how does the “relative CpG methylation activity” value read?
Answer: 0.625

Question: For TTCCGAGC, which “relative CpG methylation activity” value is on record?
Answer: 2.27

Question: With AGACGGTG as the sequence, how does the “relative CpG methylation activity” value read?
Answer: 0.376
